The results in this text go back to the RNAGym collection of RNA variant scans (doi:10.7554/elife.90254).

The chains are these.
B1: LINE1-mini (parent)
chain: GGCAGAGCUCAACACAGCGUGGCAAAGUGGCUGUGGCUAGACUGCC

Read counts are not given, so values of variants with three or more changes are uncertain.

In this series the parent is B1. Put plainly: self-cleavage, relative activity (ratio to wild type); higher = more cleavage; in vitro, sequencing; the parent is a self-cleaving ribozyme.
In the case of G1U G35A A39C, the self-cleavage is 0.06.

For G1U U38G C42G, the self-cleavage amounted to 0.11.

As for G1U U20C C23U, the self-cleavage was 0.12.

As for G2A A6U A11C G35U, the self-cleavage was 0.02.

As to G1U G29U G35A, the self-cleavage turned out to be 0.04.

With G1U G5U C10A G33U, the self-cleavage amounted to 0.01.

With G1U G35C U38C, the self-cleavage worked out at 0.02.

As to G1U G21U U38C C45U, the self-cleavage came out at 0.17.

Consider G1U G2C C10G U34A, for which the self-cleavage was found to be 0.

Consider G1U U9C G33C G40C C42U, for which the self-cleavage is 0.06.

With G1U G7U C15U A16C U34G, the self-cleavage was 0.08.

For the variant G1U G17U G29U, the self-cleavage stood at 1.08.

Take G1U U9C U34A: the self-cleavage was determined as 0.07.

Regarding G1U G2C U20C, the self-cleavage is 0.05.

In the case of G2A A4U A14U G27U G40A, the self-cleavage was found to be 0.26.

Turning to G2A A4U G7U C46U, the self-cleavage is 0.41.

For the variant G1U G22C G30U, the self-cleavage was determined as 0.01.

With G2A A4G G27U U32A G35A, the self-cleavage came out at 0.04.

G2A A6C G29A: the self-cleavage amounted to 0.36.

Take G1U G7U A24G: the self-cleavage was found to be 0.

As to G1U G7U A24U, the self-cleavage stood at 0.01.

With G2A A4U A39U, the self-cleavage is 0.21.

With G1U U34A A39C, the self-cleavage was 0.03.

Regarding G2A A6G G22A G44A, the self-cleavage is 0.27.

Take G1U G5C A11U: the self-cleavage is 0.03.

For the variant G1U G2C C15A U38G, the self-cleavage worked out at 0.04.

For G1U G19C A39G U43A, the self-cleavage worked out at 0.02.

As to G1U G2C C3U C31G C37A, the self-cleavage was 0.02.

G1U G7U C23G G36A: the self-cleavage amounted to 0.01.

Consider G1U G17C A41C C42A, for which the self-cleavage came out at 0.02.

Take G1U G17U G22C U43C: the self-cleavage was determined as 0.02.

As for G2A A4U G19A A24U A26U G33C U38C, the self-cleavage came out at 0.05.

Regarding G1U U34G U38A A39C G40U, the self-cleavage turned out to be 0.01.

On to G1U G2C U9A A24G U32G G33C G44C, for which the self-cleavage turned out to be 0.02.

Turning to G1U G2A G7A C18U A39U, the self-cleavage worked out at 0.01.

Take G2A A4C G22A G29A: the self-cleavage was 0.24.

On to G1U U38G A39G, for which the self-cleavage came out at 0.

Regarding G1U G5U C10U G19U, the self-cleavage is 0.02.

G1U G17A G19A G22A G33C U38G: the self-cleavage is 0.01.

As for G2A A6C A16G U34C, the self-cleavage amounted to 0.04.

On to G1U G21A G30U U34A, for which the self-cleavage turned out to be 0.02.

Turning to G2A A4C G21C C31A C45G, the self-cleavage turned out to be 0.1.

Take G1U G22C G36C C37A: the self-cleavage was 0.09.

For G1U G7A G21U G36C, the self-cleavage stood at 0.02.

G1U G2C A16C G17C: the self-cleavage was 0.04.

In the case of G1U G19A A25U C45A, the self-cleavage stood at 0.37.

For the variant G1U G17A U38A A39G, the self-cleavage was determined as 0.05.

Consider G1U C31G G36A, for which the self-cleavage came to 0.08.

For the variant G1U U32G U34G, the self-cleavage worked out at 0.01.

For G1U G7C G33C G40A G44U, the self-cleavage is 0.07.

Regarding G1U G7C G17U, the self-cleavage came to 0.01.

Turning to G2A A4C C10U A14U C15U A16C U28G, the self-cleavage worked out at 0.08.

Take G2A A4U A6G C45U: the self-cleavage worked out at 0.32.

For the variant G1U G21U G29U, the self-cleavage turned out to be 0.31.

Take G2A A4U G5A G21U: the self-cleavage worked out at 0.5.

For the variant G1U G29A G35C C42U, the self-cleavage was 0.07.

Take G1U G7A C18U G33A G36U U43C: the self-cleavage turned out to be 0.04.

Consider G2A A6C G7A G29A G36C, for which the self-cleavage amounted to 0.06.

Take G1U G7A C13U G17A C37A G44U: the self-cleavage worked out at 0.19.

With G1U G22U G40U U43A, the self-cleavage is 0.

With G2A A4C G19U C31U, the self-cleavage is 0.03.

For G2A A4U C13A, the self-cleavage was 1.39.

Turning to G1U U28A C31A U32C, the self-cleavage was 0.03.

G2A A4C G40U U43G: the self-cleavage is 0.25.

Consider G1U G2A G29A U32A, for which the self-cleavage worked out at 0.55.

As for G1U U28G A41U C45U, the self-cleavage amounted to 0.41.

As for G1U G2C A39G, the self-cleavage stood at 0.04.

Turning to G1U U9G A11U A24C G27A G36A, the self-cleavage came out at 0.

Regarding G1U C31U C37A, the self-cleavage was found to be 0.31.

Regarding G1U G2A G7U C13U A16C C23G U38A, the self-cleavage came to 0.1.

Regarding G1U U20C A39U G40A, the self-cleavage worked out at 0.05.

Turning to G1U G2U C8U A12G G30C U34C, the self-cleavage is 0.01.

On to G1U G21U U28A G40C, for which the self-cleavage is 0.02.

As to G2A A6U C15A, the self-cleavage was 0.25.

Regarding G1U G2A C10U G21A A41G, the self-cleavage turned out to be 0.03.

On to G1U G29U C37G, for which the self-cleavage turned out to be 0.08.

In the case of G1U C23U G29A C45A, the self-cleavage was 0.98.

As to G1U G30A G33A G44U, the self-cleavage amounted to 0.08.

G1U G7C G33A: the self-cleavage was found to be 0.05.

With G2A A6C C18U U28C, the self-cleavage amounted to 0.05.

As for G1U G19C U43A, the self-cleavage came out at 0.01.

With G2A A4G C37A C45G, the self-cleavage was found to be 0.15.

Regarding G1U U9G C31G, the self-cleavage was determined as 0.04.

G1U G27U U38G: the self-cleavage amounted to 0.01.

Turning to G2A A4C C15U G21A, the self-cleavage was determined as 0.25.

Take G1U G5C G7U: the self-cleavage was determined as 0.11.

In the case of G1U G7C G17A G22U C31A, the self-cleavage was 0.04.

With G1U G22C G36A A39U, the self-cleavage came to 0.03.

In the case of G1U C18U G35A A39G, the self-cleavage was determined as 0.

Take G1U C31A C37G: the self-cleavage worked out at 0.03.

As to G2A A4C G30C C31A U34C C37U C42G, the self-cleavage came out at 0.09.

For G1U G19A C45A, the self-cleavage came out at 0.19.

For the variant G1U C23A C42A C45A, the self-cleavage was determined as 0.03.

In the case of G1U G22U G36C, the self-cleavage is 0.02.

Turning to G2A A6G G19C C46G, the self-cleavage was 0.09.

G1U C23G U34C: the self-cleavage was determined as 0.08.

As to G1U G7C C13U G19C C37A, the self-cleavage is 0.02.

Turning to G1U G2C U9A G19A A41C, the self-cleavage amounted to 0.01.

Consider G2A A4G G22U A25U, for which the self-cleavage came to 0.23.

As for G1U G22U C46U, the self-cleavage was 0.29.

As to G1U U20C C23U G40U, the self-cleavage turned out to be 0.07.

Regarding G1U G5U G17U U34C, the self-cleavage stood at 0.08.

On to G1U G22A A26U G40A, for which the self-cleavage was 0.02.

Take G1U G7A C10U U20G G33A: the self-cleavage worked out at 0.01.

In the case of G1U G40C A41U, the self-cleavage is 0.07.

For G1U G2A A11C, the self-cleavage was 0.02.

For the variant G1U G5U G21U U32C, the self-cleavage is 0.11.

On to G1U C23U G35C A41U, for which the self-cleavage turned out to be 0.09.

As for G1U G2U C15G G29A U38C C42U C45U, the self-cleavage was 0.

Take G2A A4C C18A: the self-cleavage came out at 0.28.

Turning to G1U G36C C46U, the self-cleavage was 0.03.

Turning to G1U G17U U32A, the self-cleavage is 0.02.

Consider G1U G2U G7A A14U U20A U34C, for which the self-cleavage was determined as 0.01.

For the variant G1U G2U G27U, the self-cleavage amounted to 0.07.

Take G1U G22A C42A: the self-cleavage was 0.03.

Regarding G1U G5A U32A G35U A41G, the self-cleavage was found to be 0.03.

In the case of G2A A4U U20C G30A, the self-cleavage worked out at 0.16.

On to G1U G29C G35A, for which the self-cleavage was determined as 0.09.

For the variant G1U C23A A39U, the self-cleavage came out at 0.46.

Regarding G1U G19C G40U, the self-cleavage amounted to 0.02.

Regarding G1U G17A G21U C23U, the self-cleavage was 0.02.

For the variant G1U U38A C46G, the self-cleavage stood at 0.12.

In the case of G1U G22C G35U, the self-cleavage came to 0.09.

As to G1U G5A C31G U32C G35C C37U G44A, the self-cleavage stood at 0.07.

In the case of G1U G7C C42G, the self-cleavage turned out to be 0.13.

As for G1U G2A A11C C18A G29U C45U C46A, the self-cleavage stood at 0.01.

In the case of G1U G22A U38A G40U, the self-cleavage worked out at 0.05.

With G1U G2C C15U A25G, the self-cleavage was 0.02.

Consider G1U U9C A11G C13A C15G A16U G22C, for which the self-cleavage stood at 0.01.

For the variant G1U U20G C23G G33C C37A, the self-cleavage stood at 0.01.

Take G1U C23A C42A: the self-cleavage is 0.08.

With G1U G27U G33A C45U, the self-cleavage is 0.02.

In the case of G1U G22C C23A A25G A26G G27C C46A, the self-cleavage was 0.63.

In the case of G2A A4U C18A G22C C45U, the self-cleavage amounted to 1.36.

Consider G1U G5U C15A G33A C37A, for which the self-cleavage worked out at 0.06.

Take G2A A4G G21C G30C: the self-cleavage is 0.36.

Take G1U C23G G29A: the self-cleavage was found to be 0.29.

In the case of G2A A4C G35A U38C, the self-cleavage stood at 0.19.

In the case of G1U C23A U32G U38A, the self-cleavage came to 0.04.

In the case of G1U G29U U34A, the self-cleavage came to 0.06.

Turning to G2A A4C A12C A41U, the self-cleavage came to 0.04.

For the variant G1U G19A G35A A41C G44A, the self-cleavage was 0.02.

On to G1U G17A A26U U38C U43G, for which the self-cleavage is 0.

For G1U G40A C45A, the self-cleavage came to 0.14.

G1U G5C C45A: the self-cleavage stood at 0.03.

As for G1U G17A G29A G30U U32C C45U, the self-cleavage was determined as 0.01.

For the variant G2A A6U A12U U20A A39C, the self-cleavage was 0.23.

As to G1U G19A G27A U34G G40C C42A, the self-cleavage worked out at 0.01.

Regarding G2A A6G C15U G19U C23A A41C C45G, the self-cleavage amounted to 0.04.

Consider G1U U34G G35U, for which the self-cleavage is 0.03.

On to G1U G21A G27U U34A, for which the self-cleavage was 0.17.

G1U G7U C8G G27U: the self-cleavage amounted to 0.05.

Take G1U G5U A14G G19C G29U C42U C46G: the self-cleavage amounted to 0.01.

For the variant G1U G5C G7A A12C U28G U34G G36A G40A G44U, the self-cleavage was 0.

In the case of G1U U9A U32A, the self-cleavage was 0.03.

Consider G1U U9C C10G C42G C45G, for which the self-cleavage was 0.

On to G1U U9G G27A U28G C37A, for which the self-cleavage was determined as 0.03.

With G1U G29C G36C C37A A39C, the self-cleavage is 0.01.

In the case of G1U G21C U28A, the self-cleavage came out at 0.2.

As to G2A A6G C8A A12C A25C U38A G40U U43A, the self-cleavage turned out to be 0.03.

As to G1U U43A C45A C46U, the self-cleavage was determined as 0.07.

As for G1U G21A A24C C31A, the self-cleavage came to 0.17.

With G1U G2U C23U, the self-cleavage came to 0.03.

Take G1U G5U G27C C42G: the self-cleavage turned out to be 0.06.

In the case of G1U G21U G22U, the self-cleavage came to 1.59.

Take G2A A4G C10A G22C U38A: the self-cleavage stood at 0.02.

G1U G2A A25C G33A: the self-cleavage was 0.14.
